{"source": "the supplement of paper PMC5790926", "note": "Where a name gives a salt, the structure may show the parent alone. Inhibition of entry of single-cycle reporter particles into MDCK-SIAT1 cells, 3 h drug pretreatment, overnight read-out. IC50, lower = stronger. No active / inactive call; only inhibitors are listed. Mostly one titration per compound."}
{"test_system": "E-S-FLU (Zaire C15 EBOV-GP pseudotyped S-FLU) in MDCK-SIAT1 cells", "assay": "IC50 inhibition of E-S-FLU (EBOV-GP pseudotyped influenza) infection", "procedure": "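MDCK-SIAT1 cells were pretreated for 3 h with two-fold drug dilutions, then exposed overnight to a single-cycle eGFP reporter particle coated with the named glycoprotein; eGFP read on fixed cells. Mostly one titration per compound; only inhibitors are listed.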", "units": {"IC50 inhibition of E-S-FLU": "µM"}}
{"smiles": "COc1ccc2c(c1)[C@]13CCCC[C@@H]1[C@H](C2)N(C)CC3", "note": "[Dextromethorphan hydrobromide monohydrate]", "IC50 inhibition of E-S-FLU": 47.2}
{"smiles": "CCN(CC)CCOC(=O)C1(C2CCCCC2)CCCCC1", "note": "[Dicyclomine hydrochloride]", "IC50 inhibition of E-S-FLU": 33.6}
{"smiles": "CN1C[C@H](C(=O)N[C@]2(C)O[C@@]3(O)[C@@H]4CCCN4C(=O)[C@H](Cc4ccccc4)N3C2=O)C[C@@H]2c3cccc4[nH]cc(c34)C[C@H]21", "note": "[Dihydro ergotamine methanesulfonate]", "IC50 inhibition of E-S-FLU": 30.3}
{"smiles": "COc1cc(C(=O)OCCCN2CCCN(CCCOC(=O)c3cc(OC)c(OC)c(OC)c3)CC2)cc(OC)c1OC", "note": "[Dilazep Dihydrochloride]", "IC50 inhibition of E-S-FLU": 34.1}
{"smiles": "COc1cc2nc(N3CCN(C(=O)C4COc5ccccc5O4)CC3)nc(N)c2cc1OC", "note": "(stereo unspecified) [Doxazosin mesylate]", "IC50 inhibition of E-S-FLU": 42.9}
{"smiles": "CN(C)CCC=C1c2ccccc2COc2ccccc21", "note": "[Doxepin hydrochloride]", "IC50 inhibition of E-S-FLU": 38.5}
{"smiles": "CC(C)C[C@H](NC(=O)[C@H]1O[C@@H]1C(=O)O)C(=O)NCCCCN=C(N)N", "note": "[E64]", "IC50 inhibition of E-S-FLU": 77.2}
{"smiles": "CC(C)(C)c1ccc(C(=O)CCCN2CCC(OC(c3ccccc3)c3ccccc3)CC2)cc1", "note": "[Ebastine]", "IC50 inhibition of E-S-FLU": 5.33}
{"smiles": "Cc1c2ccncc2c(C)c2c1[nH]c1ccccc12", "note": "[Ellipticine]", "IC50 inhibition of E-S-FLU": 3.3}
{"smiles": "CCN(CC)C(C)CN1c2ccccc2Sc2ccccc21", "note": "(stereo unspecified) [Ethopropazine HCl]", "IC50 inhibition of E-S-FLU": 12.7}
{"smiles": "COc1cccc2c1[C@@H]1CN(CCCCn3c(=O)[nH]c4c(sc5ncc(-c6ccccc6)nc54)c3=O)C[C@@H]1CO2", "note": "[Fiduxosin hydrochloride]", "IC50 inhibition of E-S-FLU": 6.25}
{"smiles": "OCCN1CCN(CCCN2c3ccccc3Sc3ccc(C(F)(F)F)cc32)CC1", "note": "[Fluphenazine dihydrochloride]", "IC50 inhibition of E-S-FLU": 13.6}
{"smiles": "O=C1NCN(c2ccccc2)C12CCN(CCCC(c1ccc(F)cc1)c1ccc(F)cc1)CC2", "note": "[Fluspirilene]", "IC50 inhibition of E-S-FLU": 7.4}
{"smiles": "COCCCC/C(=N\\OCCN)c1ccc(C(F)(F)F)cc1", "note": "[Fluvoxamine maleate]", "IC50 inhibition of E-S-FLU": 44.9}
{"smiles": "CN(C)c1ccccc1CN1CCCN(Cc2ccccc2N(C)C)C1c1ccncc1", "note": "[GANT61]", "IC50 inhibition of E-S-FLU": 11}
{"smiles": "O=c1cc2c(=O)oc3cc(O)c(O)oc3c2c(O)c1O", "note": "[Galloflavin potassium]", "IC50 inhibition of E-S-FLU": 36}
{"smiles": "O=C(CCCN1CCC(O)(c2ccc(Cl)cc2)CC1)c1ccc(F)cc1", "note": "[Haloperidol]", "IC50 inhibition of E-S-FLU": 70.8}
{"smiles": "Fc1ccc(CN(C2=NCCN2)c2c(Cl)cccc2Cl)cc1", "note": "[IMID-4F hydrochloride]", "IC50 inhibition of E-S-FLU": 13.4}
{"smiles": "CC(C(O)c1ccc(O)cc1)N1CCC(Cc2ccccc2)CC1", "note": "(stereo unspecified) [Ifenprodil tartrate]", "IC50 inhibition of E-S-FLU": 66.8}
{"smiles": "CNC1CC(c2ccc(Cl)c(Cl)c2)c2ccccc21", "note": "(stereo unspecified) [Indatraline HCl]", "IC50 inhibition of E-S-FLU": 9.1}
{"smiles": "CC(C)NC(C)Cc1ccc(I)cc1", "note": "(stereo unspecified) [Iofetamine HCl]", "IC50 inhibition of E-S-FLU": 96.6}
{"smiles": "CC(=O)N1CCN(c2ccc(OCC3COC(Cn4ccnc4)(c4ccc(Cl)cc4Cl)O3)cc2)CC1", "note": "(stereo unspecified) [Ketoconazole]", "IC50 inhibition of E-S-FLU": 77.3}
{"smiles": "c1ccc(CN2CCC3(CCCc4ccccc43)CC2)cc1", "note": "[L-687,384 HCl]", "IC50 inhibition of E-S-FLU": 17}
{"smiles": "Ic1ccccc1CNC1C2CCN(CC2)C1C(c1ccccc1)c1ccccc1", "note": "[L-703,606 oxalate salt hydrate]", "IC50 inhibition of E-S-FLU": 1.7}
{"smiles": "OC1(c2ccc(Cl)cc2)CCN(Cc2c[nH]c3ccccc23)CC1", "note": "[L-741,626]", "IC50 inhibition of E-S-FLU": 57.1}
{"smiles": "CN(C)C(=O)C(CCN1CCC(O)(c2ccc(Cl)cc2)CC1)(c1ccccc1)c1ccccc1", "note": "[Loperamide HCl]", "IC50 inhibition of E-S-FLU": 16.8}
{"smiles": "CN1CCN(C2=Nc3ccccc3Oc3ccc(Cl)cc32)CC1", "note": "[Loxapine succinate]", "IC50 inhibition of E-S-FLU": 100}
{"smiles": "CN(c1nc2ccccc2s1)C1CCN(C[C@H](O)COc2ccc(F)c(F)c2)CC1", "note": "[Lubeluzole dihydrochloride]", "IC50 inhibition of E-S-FLU": 30.2}
{"smiles": "CNCCCC12CCC(c3ccccc31)c1ccccc12", "note": "[Maprotiline HCl]", "IC50 inhibition of E-S-FLU": 5.4}
{"smiles": "CN1C[C@H](CNC(=O)OCc2ccccc2)C[C@@H]2c3cccc4c3c(cn4C)C[C@H]21", "note": "[Metergoline]", "IC50 inhibition of E-S-FLU": 8.2}
{"smiles": "CSc1ccc2c(c1)C(N1CCN(C)CC1)Cc1ccccc1S2", "note": "(stereo unspecified) [Methiothepin]", "IC50 inhibition of E-S-FLU": 3.4}
{"smiles": "CN1CCN2c3ccccc3Cc3ccccc3C2C1", "note": "(stereo unspecified) [Mianserin HCl]", "IC50 inhibition of E-S-FLU": 58.9}
{"smiles": "O=c1c(O)c(-c2cc(O)c(O)c(O)c2)oc2cc(O)cc(O)c12", "note": "[Myricetin]", "IC50 inhibition of E-S-FLU": 25.3}
{"smiles": "Clc1ccc2c(c1)N=C(N1CCNCC1)c1ccccc1N2", "note": "[N-Desmethylclozapine]", "IC50 inhibition of E-S-FLU": 17.5}
{"smiles": "CNCCc1cnc(CCC(c2ccccc2)c2ccccc2)[nH]1", "note": "[N-methylhistaprodifen dioxalate salt]", "IC50 inhibition of E-S-FLU": 10.3}
{"smiles": "CC(C)[C@H]1c2ccc(F)cc2CC[C@@]1(CCN(C)CCCc1nc2ccccc2[nH]1)OC(=O)C1CC1", "note": "[NNC 55-0396]", "IC50 inhibition of E-S-FLU": 1.8}
{"smiles": "COc1ccccc1N1CCN(CC(O)COc2cccc3ccccc23)CC1", "note": "(stereo unspecified) [Naftopidil dihydrochloride]", "IC50 inhibition of E-S-FLU": 65.5}
{"smiles": "Oc1ccc2c3c1O[C@H]1c4oc5ccccc5c4C[C@@]4(O)[C@@H](C2)N(CC2CC2)CC[C@]314", "note": "[Naltriben methanesulfonate]", "IC50 inhibition of E-S-FLU": 99.1}
{"smiles": "Oc1ccc2c3c1O[C@H]1c4[nH]c5ccccc5c4C[C@@]4(O)[C@@H](C2)N(CC2CC2)CC[C@]314", "note": "[Naltrindole HCl]", "IC50 inhibition of E-S-FLU": 32.7}
{"smiles": "COc1ccc([C@H]2N[C@H](C(=O)O)Cc3c2[nH]c2ccccc32)cc1CN1CCN(c2ccccc2F)CC1", "note": "[Ned19]", "IC50 inhibition of E-S-FLU": 101}
{"smiles": "COC(=O)C1=C(C)NC(C)=C(C(=O)OCCN(C)Cc2ccccc2)C1c1cccc([N+](=O)[O-])c1", "note": "(stereo unspecified) [Nicardipine HCl]", "IC50 inhibition of E-S-FLU": 28.3}
{"smiles": "CNCCC(Oc1ccccc1OC)c1ccccc1", "note": "(stereo unspecified) [Nisoxetine HCl]", "IC50 inhibition of E-S-FLU": 57.4}
{"smiles": "CNCCC=C1c2ccccc2CCc2ccccc21", "note": "[Nortriptyline HCl]", "IC50 inhibition of E-S-FLU": 12.6}
{"smiles": "OCCN1CCN(CCCN2c3ccccc3C=Cc3ccccc32)CC1", "note": "[Opipramol dihydrochloride]", "IC50 inhibition of E-S-FLU": 18.3}
{"smiles": "Cc1ccccc1C(OCCN(C)C)c1ccccc1", "note": "(stereo unspecified) [Orphenadrine HCl]", "IC50 inhibition of E-S-FLU": 16.2}
{"smiles": "CCN(CC)CC#CCOC(=O)C(O)(c1ccccc1)C1CCCCC1", "note": "(stereo unspecified) [Oxybutynin Chloride]", "IC50 inhibition of E-S-FLU": 48.5}
{"smiles": "C=CCc1cccc(/C=N/NC(=O)CN2CCN(Cc3ccccc3)CC2)c1O", "note": "[PAC-1]", "IC50 inhibition of E-S-FLU": 53.8}
{"smiles": "Fc1ccc([C@@H]2CCNC[C@H]2COc2ccc3c(c2)OCO3)cc1", "note": "[Paroxetine HCl hemihydrate]", "IC50 inhibition of E-S-FLU": 3}
{"smiles": "OCCN1CCN(CCCN2c3ccccc3Sc3ccc(Cl)cc32)CC1", "note": "[Perphenazine]", "IC50 inhibition of E-S-FLU": 8.18}
{"smiles": "N=C(NC(=O)c1nc(Cl)c(N)nc1N)Nc1ccccc1", "note": "[Phenamil methanesulfonate]", "IC50 inhibition of E-S-FLU": 44}
{"smiles": "O=c1[nH]c2ccccc2n1C1CCN(CCCC(c2ccc(F)cc2)c2ccc(F)cc2)CC1", "note": "[Pimozide]", "IC50 inhibition of E-S-FLU": 7.5}
{"smiles": "COc1cc(/C=C/C(=O)N2CCC=CC2=O)cc(OC)c1OC", "note": "[Piperlongumine]", "IC50 inhibition of E-S-FLU": 9.5}
{"smiles": "COc1cc2nc(N3CCN(C(=O)c4ccco4)CC3)nc(N)c2cc1OC", "note": "[Prazosin HCl]", "IC50 inhibition of E-S-FLU": 19.8}
{"smiles": "CN1CCN(CCCN2c3ccccc3Sc3ccc(Cl)cc32)CC1", "note": "[Prochlorperazine dimaleate]", "IC50 inhibition of E-S-FLU": 3.7}
{"smiles": "CN(C)CCCN1c2ccccc2Sc2ccccc21", "note": "[Promazine HCl]", "IC50 inhibition of E-S-FLU": 15}
{"smiles": "CC(CN1c2ccccc2Sc2ccccc21)N(C)C", "note": "(stereo unspecified) [Promethazine HCl]", "IC50 inhibition of E-S-FLU": 22.8}
